Measurements: a collection of fitness landscapes (doi:10.1126/science.1257360)
This is one part of the list.

B1: PhoQ; a variant is named by its letters at X, in order, P23837 (parent)
chain: MKKLLRLFFPLSLRVRFLLATAAVVLVLSLAYGMVALIGYSVSFDKTTFRLLRGESNLFYTLAKWENNKLHVELPENIDKQSPTMTLIYDENGQLLWAQRDVPWLMKMIQPDWLKSNGFHEIEADVNDTSLLLSGDHSIQQQLQEVREDDDDAEMTHSVAVNVYPATSRMPKLTIVVVDTIPVELKSSYMVWSWFIYVLSANLLLVIPLLWVAAWWSLRPIEALAKEVRELEEHNRELLNPATTRELTSLVRNLNRLLKSERERYDKYRTTLTDLTHSLKTPLXXLQXXLRSLRSEKMSVSDAEPVMLEQISRISQQIGYYLHRASMRGGTLLSRELHPVAPLLDNLTSALNKVYQRKGVNISLDISPEISFVGEQNDFVEVMGNVLDNACKYCLEFVEISARQTDEHLYIVVEDDGPGIPLSKREVIFDRGQRVDTLRPGQGVGLAVAREITEQYEGKIVAGESMLGGARMEVIFGRQHSAPKDE

Variants of: B1
Test: enrichment ratio after two sorts for PhoP signalling (ratio (wild type AVST 3.29)); higher = more functional
Conditions: with PhoP (E. coli)

Row | Variant | enrichment ratio
1 | PKVG | ≤ 0.25
2 | PFAV | ≤ 0.25
3 | TKGV | 0.818
4 | VACN | ≤ 0.25
5 | ITDP | ≤ 0.25
6 | EYFT | ≤ 0.25
7 | NQDM | ≤ 0.25
8 | NEPK | ≤ 0.25
9 | VDCK | ≤ 0.25
10 | MGLQ | 16
11 | TAAH | 19.2
12 | IATV | ≤ 0.25
13 | TDCH | 11.9
14 | PCPY | ≤ 0.25
15 | ESWM | ≤ 0.25
16 | TWHM | ≤ 0.25
17 | KIRE | ≤ 0.25
18 | WHHH | ≤ 0.25
19 | LVDG | ≤ 0.25
20 | AFLG | 15.7
21 | WVVW | ≤ 0.25
22 | YTSK | ≤ 0.25
23 | IIES | ≤ 0.25
24 | FVKE | ≤ 0.25

Row | Variant | enrichment ratio
25 | RTFA | ≤ 0.25
26 | NLWT | ≤ 0.25
27 | TAFR | 0.781
28 | LEFY | 0.594
29 | MQNS | ≤ 0.25
30 | TTYW | ≤ 0.25
31 | VLSD | ≤ 0.25
32 | PSCP | ≤ 0.25
33 | NWNK | ≤ 0.25
34 | QPTD | ≤ 0.25
35 | RWNL | ≤ 0.25
36 | EPMG | ≤ 0.25
37 | LKNT | ≤ 0.25
38 | NLDV | ≤ 0.25
39 | ALHN | ≤ 0.25
40 | KLGA | ≤ 0.25
41 | IDKE | ≤ 0.25
42 | IAND | ≤ 0.25
43 | NNMY | ≤ 0.25
44 | NEFS | ≤ 0.25
45 | RART | ≤ 0.25
46 | MLQY | ≤ 0.25
47 | RTYS | ≤ 0.25
48 | RWSM | ≤ 0.25

Row | Variant | enrichment ratio
49 | ARGP | ≤ 0.25
50 | DHQE | ≤ 0.25
51 | YWCR | ≤ 0.25
52 | MVFV | ≤ 0.25
53 | PEHC | ≤ 0.25
54 | WDVN | ≤ 0.25
55 | FSIR | ≤ 0.25
56 | EPAG | ≤ 0.25
57 | YGIW | ≤ 0.25
58 | AHGW | ≤ 0.25
59 | TLVV | ≤ 0.25
60 | VTQE | ≤ 0.25
61 | NTNF | ≤ 0.25
62 | AHSH | ≤ 0.25
63 | ACPW | ≤ 0.25
64 | TFLS | 3.13
65 | FDHQ | ≤ 0.25
66 | YDVS | ≤ 0.25
67 | NALD | ≤ 0.25
68 | KDFY | ≤ 0.25
69 | FPML | ≤ 0.25
70 | VRPL | ≤ 0.25
71 | QTHP | ≤ 0.25
72 | PMTQ | ≤ 0.25

Row | Variant | enrichment ratio
73 | KASQ | ≤ 0.25
74 | MMLF | ≤ 0.25
75 | ARDC | ≤ 0.25
76 | SQHW | ≤ 0.25
77 | RMWG | ≤ 0.25
78 | ASPG | ≤ 0.25
79 | IHVH | ≤ 0.25
80 | QGIP | ≤ 0.25
81 | LITK | ≤ 0.25
82 | GYMR | ≤ 0.25
83 | IMAR | ≤ 0.25
84 | SFDI | 0.302
85 | FPEI | ≤ 0.25
86 | SATA | 2.59
87 | IKWD | ≤ 0.25
88 | PWYF | ≤ 0.25
89 | DLDK | ≤ 0.25
90 | GHRN | ≤ 0.25
91 | IAEA | ≤ 0.25
92 | HNWD | ≤ 0.25
93 | IKPW | ≤ 0.25
94 | KCKC | ≤ 0.25
95 | GKTV | ≤ 0.25
96 | DTII | ≤ 0.25

Row | Variant | enrichment ratio
97 | HFEK | ≤ 0.25
98 | IVIH | ≤ 0.25
99 | KFCW | ≤ 0.25
100 | ASFE | ≤ 0.25
101 | GRNP | ≤ 0.25
102 | TYCI | ≤ 0.25
103 | FECV | 5.83
104 | LTMP | ≤ 0.25
105 | GCSD | ≤ 0.25
106 | MEPL | ≤ 0.25
107 | FWAV | ≤ 0.25
108 | DDVC | ≤ 0.25
109 | TSRT | ≤ 0.25
110 | MQRN | ≤ 0.25
111 | VDYI | ≤ 0.25
112 | YFEG | ≤ 0.25
113 | PLTQ | ≤ 0.25
114 | YCVM | ≤ 0.25
115 | TAGY | 34.1
116 | WSVW | ≤ 0.25
117 | VTVL | 0.537
118 | RGQR | ≤ 0.25
119 | HSHS | ≤ 0.25
120 | FIMT | ≤ 0.25

Row | Variant | enrichment ratio
121 | GVKF | ≤ 0.25
122 | IKDD | ≤ 0.25
123 | RQRW | ≤ 0.25
124 | FSHE | ≤ 0.25
125 | PCFE | ≤ 0.25
126 | RLWI | ≤ 0.25
127 | DPWK | ≤ 0.25
128 | KMRR | ≤ 0.25
129 | NKYT | ≤ 0.25
130 | IADL | ≤ 0.25
131 | YVTD | ≤ 0.25
132 | HMCG | ≤ 0.25
133 | LIKD | ≤ 0.25
134 | EHYW | ≤ 0.25
135 | PDPH | ≤ 0.25
136 | FPSE | ≤ 0.25
137 | EIGS | ≤ 0.25
138 | HKNA | ≤ 0.25
139 | LFMF | ≤ 0.25
140 | TQLH | 8.84
141 | PAGH | ≤ 0.25
142 | YWED | ≤ 0.25
143 | TCQE | ≤ 0.25
144 | FGIL | 1.13

Row | Variant | enrichment ratio
145 | RTSR | ≤ 0.25
146 | PLAP | ≤ 0.25
147 | WQAS | ≤ 0.25
148 | MRRN | ≤ 0.25
149 | WVKM | ≤ 0.25
150 | SSDW | ≤ 0.25
151 | QCSR | ≤ 0.25
152 | PMVH | ≤ 0.25
153 | TDIA | ≤ 0.25
154 | FGQL | ≤ 0.25
155 | KKFD | ≤ 0.25
156 | EFCE | ≤ 0.25
157 | DNHI | ≤ 0.25
158 | HHWN | ≤ 0.25
159 | RNPP | ≤ 0.25
160 | KCLM | ≤ 0.25
161 | DAAR | 0.417
162 | GDTI | ≤ 0.25
163 | LIMH | ≤ 0.25
164 | NWAQ | ≤ 0.25
165 | HVCH | ≤ 0.25
166 | DNSL | ≤ 0.25
167 | RLCD | ≤ 0.25
168 | IHEQ | ≤ 0.25

Row | Variant | enrichment ratio
169 | PWAS | ≤ 0.25
170 | YLQC | ≤ 0.25
171 | DNPE | ≤ 0.25
172 | VFHG | ≤ 0.25
173 | HSSA | ≤ 0.25
174 | DNIF | ≤ 0.25
175 | VRWW | ≤ 0.25
176 | EYSV | ≤ 0.25
177 | KVRM | ≤ 0.25
178 | NSVG | ≤ 0.25
179 | YFTR | ≤ 0.25
180 | TYQH | ≤ 0.25
181 | GTHS | ≤ 0.25
182 | SNQM | 9.41
183 | HKCN | ≤ 0.25
184 | VGVP | ≤ 0.25
185 | GRSD | ≤ 0.25
186 | QYVR | ≤ 0.25
187 | RYTL | ≤ 0.25
188 | HSWF | ≤ 0.25
189 | YMHQ | ≤ 0.25
190 | GFHT | ≤ 0.25
191 | MMRW | ≤ 0.25
